This note sets out measurements from publication PMC4049591.

The chains behind the UniProt entries cited, without tags or fusion partners. Where a name states a change or a piece, a line headed by the entry shows the natural chain unless it says otherwise. A line that says so, or that is headed by a name, gives the form on record, which may keep a tag or linker.
Non-glycosylated human sonic hedgehog mutant N278A with HA tag (N278A-HA) (Q15465, form named): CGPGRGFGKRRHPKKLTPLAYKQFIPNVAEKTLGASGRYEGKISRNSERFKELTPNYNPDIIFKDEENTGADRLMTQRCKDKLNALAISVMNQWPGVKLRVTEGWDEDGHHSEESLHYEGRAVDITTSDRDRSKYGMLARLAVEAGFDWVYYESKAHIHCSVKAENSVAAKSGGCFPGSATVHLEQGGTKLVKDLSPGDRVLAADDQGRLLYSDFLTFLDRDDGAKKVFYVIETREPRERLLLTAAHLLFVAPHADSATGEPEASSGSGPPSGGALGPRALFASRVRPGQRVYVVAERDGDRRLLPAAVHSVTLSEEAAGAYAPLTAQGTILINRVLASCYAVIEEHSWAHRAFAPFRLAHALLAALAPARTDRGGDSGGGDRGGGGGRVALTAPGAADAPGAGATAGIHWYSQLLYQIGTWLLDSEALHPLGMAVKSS
UniProt Q86TM6: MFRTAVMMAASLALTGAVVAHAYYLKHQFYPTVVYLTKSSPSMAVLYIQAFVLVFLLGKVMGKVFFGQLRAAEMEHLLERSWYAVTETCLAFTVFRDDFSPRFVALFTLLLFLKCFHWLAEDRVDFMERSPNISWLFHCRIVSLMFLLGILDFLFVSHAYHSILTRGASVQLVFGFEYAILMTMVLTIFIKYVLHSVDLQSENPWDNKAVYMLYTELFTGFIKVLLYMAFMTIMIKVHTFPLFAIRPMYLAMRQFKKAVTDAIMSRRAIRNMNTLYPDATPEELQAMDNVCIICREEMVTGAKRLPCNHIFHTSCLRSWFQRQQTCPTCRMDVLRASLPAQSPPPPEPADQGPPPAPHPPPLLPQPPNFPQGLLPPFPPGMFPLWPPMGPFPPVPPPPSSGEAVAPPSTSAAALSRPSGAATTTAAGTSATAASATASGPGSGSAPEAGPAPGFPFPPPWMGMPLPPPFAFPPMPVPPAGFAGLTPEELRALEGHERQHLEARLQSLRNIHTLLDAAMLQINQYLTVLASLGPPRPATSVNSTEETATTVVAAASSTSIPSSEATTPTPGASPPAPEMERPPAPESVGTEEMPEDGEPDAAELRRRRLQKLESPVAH

The target in assay [1] is T1, Myc-tagged wild type EDEM3 (human) (UniProt Q9BZQ6).
T1 sequence: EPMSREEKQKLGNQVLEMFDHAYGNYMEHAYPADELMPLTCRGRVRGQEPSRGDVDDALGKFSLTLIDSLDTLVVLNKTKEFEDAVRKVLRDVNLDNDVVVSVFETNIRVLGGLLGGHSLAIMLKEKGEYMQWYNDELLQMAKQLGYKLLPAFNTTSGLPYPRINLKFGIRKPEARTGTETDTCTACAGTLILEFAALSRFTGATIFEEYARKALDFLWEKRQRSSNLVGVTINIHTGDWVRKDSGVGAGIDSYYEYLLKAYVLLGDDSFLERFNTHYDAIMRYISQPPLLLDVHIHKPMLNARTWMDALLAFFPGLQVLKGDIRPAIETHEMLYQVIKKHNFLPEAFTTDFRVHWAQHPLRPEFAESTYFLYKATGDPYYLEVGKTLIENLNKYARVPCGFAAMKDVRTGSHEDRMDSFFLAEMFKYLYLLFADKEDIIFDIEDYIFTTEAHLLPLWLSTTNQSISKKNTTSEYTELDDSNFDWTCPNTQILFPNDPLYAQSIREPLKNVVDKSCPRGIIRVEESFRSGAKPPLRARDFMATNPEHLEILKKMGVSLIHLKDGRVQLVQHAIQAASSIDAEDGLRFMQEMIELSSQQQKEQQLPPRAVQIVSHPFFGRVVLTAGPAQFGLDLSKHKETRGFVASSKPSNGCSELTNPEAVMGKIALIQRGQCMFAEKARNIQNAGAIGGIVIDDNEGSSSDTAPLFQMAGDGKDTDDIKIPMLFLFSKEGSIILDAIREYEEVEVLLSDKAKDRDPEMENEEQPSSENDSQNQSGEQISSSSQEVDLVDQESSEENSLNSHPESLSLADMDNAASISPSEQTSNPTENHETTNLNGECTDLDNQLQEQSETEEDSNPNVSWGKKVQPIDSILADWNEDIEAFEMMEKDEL
Kind of assay: co-IP; 293T cells transfected with Myc-tagged EDEMs (10% of the DNA normally used); lysed in buffer with 1% Triton; immunoprecipitated with Myc antibodies; blotted for endogenous SEL1L, HRD1, Bip, calnexin and ERp57.

In assay [2] the target is T2, Myc-tagged wild type EDEM2 (human) (UniProt Q9BV94).
T2 sequence: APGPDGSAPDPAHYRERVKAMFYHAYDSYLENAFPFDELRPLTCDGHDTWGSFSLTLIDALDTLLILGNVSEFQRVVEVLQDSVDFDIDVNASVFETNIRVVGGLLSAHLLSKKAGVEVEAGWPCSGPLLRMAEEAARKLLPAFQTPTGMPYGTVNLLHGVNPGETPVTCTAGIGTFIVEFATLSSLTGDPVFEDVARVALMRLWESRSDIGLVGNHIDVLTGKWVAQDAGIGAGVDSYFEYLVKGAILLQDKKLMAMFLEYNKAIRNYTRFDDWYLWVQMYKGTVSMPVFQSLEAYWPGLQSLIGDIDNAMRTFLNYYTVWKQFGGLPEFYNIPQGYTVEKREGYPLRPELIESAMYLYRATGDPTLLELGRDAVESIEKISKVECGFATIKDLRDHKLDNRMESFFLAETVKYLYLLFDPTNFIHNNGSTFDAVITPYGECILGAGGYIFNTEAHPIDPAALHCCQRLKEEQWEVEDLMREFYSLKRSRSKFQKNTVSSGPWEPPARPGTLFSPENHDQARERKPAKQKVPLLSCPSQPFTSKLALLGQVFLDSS
The assay is described as above.

Assay [3] concerns the target Non-glycosylated human sonic hedgehog mutant N278A with HA tag (N278A-HA) (human) (UniProt Q15465). The assay can be described thus: co-IP; cells co-transfected with SHH-HA or N278A-HA and Myc-tagged EDEMs or Ret4A (one tenth of the usual DNA); lysed in buffer with 1% Triton; immunoprecipitated with HA antibodies; blotted with HA and Myc antibodies.

Positions count from the first letter of the chain named. Names may count otherwise. These are yes or no findings as the source states them, for the method shown. In cells and extracts the contact can be indirect. Some binding calls cover weakened binding; strength is not graded here. Sequences can lack the tags named with a protein.

Take HRD1 (from UniProt Q86TM6 1-617): the binding result in assay [1] and in assay [2] was “no binding” in each case.

B1: Myc-tagged EDEM3 active site mutant D293N (protein, UniProt Q9BZQ6 42-932)
chain: T1 sequence with D252N
For the molecule B1, the binding entry in assay [3] is listed as “binds weakly”.

B2: Myc-tagged wild type EDEM3 (protein, UniProt Q9BZQ6 42-932)
chain: T1 sequence
For B2, in assay [3], the binding result was “binds weakly”.

B3: Myc-tagged EDEM1 active site mutant E493Q (protein, UniProt Q92611 1-657)
chain: MQWRALVLGLVLLRLGLHGVLWLVFGLGPSMGFYQRFPLSFGFQRLRSPDGPASPTSGPVGRPGGVSGPSWLQPPGTGAAQSPRKAPRRPGPGMCGPANWGYVLGGRGRGPDEYEKRYSGAFPPQLRAQMRDLARGMFVFGYDNYMAHAFPQDELNPIHCRGRGPDRGDPSNLNINDVLGNYSLTLVDALDTLAIMGNSSEFQKAVKLVINTVSFDKDSTVQVFEATIRVLGSLLSAHRIITDSKQPFGDMTIKDYDNELLYMAHDLAVRLLPAFENTKTGIPYPRVNLKTGVPPDTNNETCTAGAGSLLVEFGILSRLLGDSTFEWVARRAVKALWNLRSNDTGLLGNVVNIQTGHWVGKQSGLGAGLDSFYEYLLKSYILFGEKEDLEMFNAAYQSIQNYLRRGREACNEGEGDPPLYVNVNMFSGQLMNTWIDSLQAFFPGLQVLIGDVEDAICLHAFYYAIWKRYGALPERYNWQLQAPDVLFYPLRPQLVESTYLLYQATKNPFYLHVGMDILQSLEKYTKVKCGYATLHHVIDKSTEDRMESFFLSETCKYLYLLFDEDNPVHKSGTRYMFTTEGHIVSVDEHLRELPWKEFFSEEGGQDQGGKSVHRPKPHELKVINSSSNCNRVPDERRYSLPLKSIYMRQIDQMVGLI
Turning to B3, the binding entry in assay [3] is recorded as “binds”.

B4: Myc-tagged wild type EDEM1 (protein, UniProt Q92611 1-657)
chain: B3 chain with Q493E
For the molecule B4, the binding result in assay [3] is given as “binds”.

B5: Myc-tagged EDEM2 active site mutant D258N (protein, UniProt Q9BV94 22-578)
chain: T2 sequence with D237N
As to B5, the binding entry in assay [3] is reported as “binds”.

B6: Myc-tagged wild type EDEM2 (protein, UniProt Q9BV94 22-578)
chain: T2 sequence
With B6, in assay [3], the binding entry is reported as “binds”.
